# Laboratory results from article PMC10726135.
# This is one part of the list. At the low end of the ranking, values are background and their order means little. Measured with an extract: partners may take part in the binding.
# Target: T1, HNF4alpha2 (COS-7 nuclear extract) (UniProt P41235)
# T1 sequence: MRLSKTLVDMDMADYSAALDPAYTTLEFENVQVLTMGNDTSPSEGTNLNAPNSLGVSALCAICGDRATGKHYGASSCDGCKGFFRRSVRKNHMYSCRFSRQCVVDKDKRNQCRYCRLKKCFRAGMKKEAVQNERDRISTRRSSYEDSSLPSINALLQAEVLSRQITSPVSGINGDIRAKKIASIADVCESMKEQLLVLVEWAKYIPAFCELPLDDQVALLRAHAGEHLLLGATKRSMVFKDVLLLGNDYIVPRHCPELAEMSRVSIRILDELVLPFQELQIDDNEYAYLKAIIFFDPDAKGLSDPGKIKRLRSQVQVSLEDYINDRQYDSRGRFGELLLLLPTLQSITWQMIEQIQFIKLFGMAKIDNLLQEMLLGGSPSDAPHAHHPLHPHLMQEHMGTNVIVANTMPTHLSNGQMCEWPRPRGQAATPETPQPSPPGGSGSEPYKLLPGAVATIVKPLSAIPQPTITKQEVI
# Experiment: protein-binding microarray
# Conditions: COS-7 nuclear extract on double-stranded Agilent 4x180k PBM; binding buffer, salt, pH and temperature not given; high values mean tight binding; double strand, one strand shown; sequences stand for … in …GCCTAGGGAGATTAGAGTATCGGTCGA
row,Sequence,binding signal (log2 normalized intensity)
1,CAAACAAGTCAATGAGCATTTCACAATTCG,-1.05
2,CTGGGGTCAATAGTTGTGTAAATAGCTCAG,1.71
3,CAGGAGTGGGAGAAAGCTTTGGACTTTGGG,4.59
4,TCTCTTTGTTGACATCTGCTTCCAAAGAGC,-1.19
5,CAATCCTGGAGAAGGAGCACCAATGACCTT,3.47
6,CGATATTAATGGTGACCCCTCAGTTTTTCT,2.99
7,GCAGCGAGGACAACCAGAGGTCACTTTTAT,2
8,GCGGCGCTGACCCCGGGAGCAGCATGGCCC,2.11
9,GGAGGCTGAGGTGGAAGGATCACCTGAGTC,-1.11
10,TGGCCTGGGAACTTAGCGATTTGGAACCCA,0.829
11,TTGCCCTTTCCTAGACGTAAGACAACATCT,0.374
12,GCTGACTGGTTGGAATTCCAGTGTTCACAT,1.49
13,AGCGAGTTATCTGCATTCCAGCTCAATCAA,-1.17
14,TAAAGGCTTTTGCAAGAAAACCAGCATGGT,0.113
15,AGCACCAGGGATAGCGCCCACACTGCCCAT,-1.09
16,ATCTGCCAACAGAGTCATCACAATAGGGAA,-1.15
17,CCCCCACACCATTAGAGAACATGTACTTTG,3.32
18,TCTGCTTGCCATTAATGAAAACTGCACTTC,1.53
19,ACAGGACAAATCAAGTGAAATGCCAACGGC,-1.08
20,TTACCATGCCAGAACTTCTCATCTTATCTA,-0.912
21,CTGGGTTCAGTTACGGGGTGGTTTATCTGC,1.37
22,GATAAAAGTGAGCAATGCTGAGTATGCAGC,-1.06
23,ACAATCTGAAGTCCCCTGTGCTTTGGCCAA,1.2
24,AGGGCCTCTCTTCTTGTAATCCCATTTCCC,1.13

row,Sequence,binding signal (log2 normalized intensity)
1,AGGTACAAACATACTTAGGATTTTTGTGCC,0.442
2,CTAGGAGAGTGGACTCACAGCAGGAGGGCT,-1.22
3,TATGCTTTTATTTAACTTCTGGGGGCAAGG,1.25
4,TGCTTATCAGTGTACCTGTCCCTACTCAAT,0.371
5,AAGGCAGATTTCTGTCTTTGATCTGCTATC,0.746
6,TAGAAGTATGTCTGGGATTTGAAGGAGCAG,-1.11
7,CACATTCCAGCTCTGTGACTTTACCTGAAA,-1.06
8,TCTCTCAAGGTTCCCAGCTAAATAAATAAC,-0.682
9,TTGCGAGGTTCCATGGTGTAATGGTTAGCA,1.38
10,CTCTCGCCGAGGCCCCAGGAGACCCCGCGA,1.82
11,GGATCAAGTGGCAATAAACTCCGTTATCAC,-0.451
12,GAGTCCAGAGGTCAAGGCTGCAGCGAGCCA,1.98
13,TGAAAGAGCTCAAATGACAGAACAGTCCAG,-0.85
14,GGATTATCACTGAATCGAGGCTATTCTGTA,-1.05
15,CAAAAAGTTGGTTGGAGCTATGGGCAGAAA,0.354
16,AGAACCCATGCTCTTTGGCCTGGCATTTGA,0.512
17,ACAATGATGAAAGGAGCTTGGGAAGACAGA,-1.07
18,CTCTCTCTCCTAACTATGGTCACGCGGCCA,-0.665
19,AGGCCGGGCCTCAAGGGAATCTGCTGTAAT,-0.993
20,GGGTTAGGCCTTTAGAGGATTTACTTATAC,-0.0397
21,AGAAAGTGAGGAATGCAACCACACCAACAT,-1.11
22,AAAGGTTGGGGGTGGGGAGGAAGCAAAATT,-1.12
23,TCTTTTGACCTTTGCCTCATTCTTATTGCC,4.97
24,CTGAAGAATTTGGACTTTGCACTAAAAGCC,6.95

row,Sequence,binding signal (log2 normalized intensity)
1,CGGCCTTTCCCGGCTGCCTAAGCACTTGGG,-1.16
2,CTGGTGCTGCTACTTTAGCTGCCAGAGGTT,-0.423
3,CCCAGACGCAGGCCTGCAAGCTCCTGGTTG,-1.08
4,AACGACCCTTGCTCTGTTTTCTGACGCAAC,0.962
5,GGCCCAAGATAAAGGGACAGGGGTCATCAG,2.57
6,TTAGGCTGATGCCCTTTGGATTTAGGCAGT,2.87
7,GCCTGAACAAACATGAGGGACTGGGAAGAG,-1.13
8,GAACGGGTCAAGAGGGACAAAATGCCCAGG,-1.1
9,TTTGAACATTTTAACACAGGACAAATCAAG,0.935
10,GAGACTGGAGAGACCAAAGGGTGAAATAGG,-0.64
11,TGCTAGTAAGGGGAGGAGCTGAAACAGTCT,-1.17
12,ACCCCACGGAGCTGCCTCACATGAGCTAGA,-0.873
13,TTTAAAGTATCCCATCCATTTCCCATCCCC,3.39
14,AGCATTGTGCTGAAAAGACTTCACAATCAA,-1.14
15,CAGTGTTTGCTTTAGATTTTCTCACTCTAA,0.82
16,GAAAGGGCAGAATCTAGGATAACTCTAGTG,-1.22
17,TTGCAGGCTGATAGGCAGAAGGGACTAGCC,-1.14
18,TGGACTCTGACCCATTCCTTCTCACCGGGT,3.88
19,GCAAAGCCAATCTGCTTAAAGGCAAAGTCC,3.57
20,CCTCCCTCCATGCTGTAGATTGTGGAATGT,1.81
21,CGCATCTGAAGATAAGAGAAGTTGCTCTTT,2.14
22,AATCCTCAAAAATGCTTTACAAGGTGGTTG,1.23
23,AGACTTTGACCTCTGCTAGGTTTGGGTAAG,5.62
24,AGTATCCGCCTTCACTCCCCTGACAGCATG,2.01

row,Sequence,binding signal (log2 normalized intensity)
1,TCTCACTGGATGTGTACCTCATCTTCTTTC,0.929
2,GGTTGGGGGTGGCTAATTACATCCAGAGTG,-0.0915
3,AGGTTATTCTTTCCCCTCCCTTCCACCTTT,3.94
4,CACACATTAGCTTCCCGGCTGTCACAGCCT,-1.13
5,CTGAATGACCACATGCCCTCAGTACAGGGC,-0.435
6,TTTGCCCTGTCAGTCTCTCAATGATTGACA,-1.14
7,CCTGATTGGTCATACTTGACCCACAGCTAG,1.81
8,ATGCAAACACCTACATTCAAATCCTTGCTC,-1.07
9,CCCGCTCCACTCCGGGCGATCCGGGCTCCG,-1.09
10,AGGAAAGTCTCCCTCCCTTTGATCCCACAC,3.06
11,TGCGCAAGTCCCAGAAGTTCTAAGGTGGGA,0.449
12,GGTGATGAGTTCTTATCTAGGTAAGTATAG,1.65
13,TAAATCAGAAGAAAAAGGTAAGGAGATAAG,-1.22
14,TTGCCTTATTTGAACACAGTTCGAACAGTT,0.233
15,ATTTTGGAATGTCGCATAGCTCCTGGCTGG,-1.06
16,GTTGCTGAAGGGCAGGGTTGGCTGTGGCAA,0.304
17,GATATTGGCCAAAGGGCACAAGAGGAATTG,1.79
18,CAAGAATCTTGATTACTATAGGGCAAATGG,1.4
19,AGGTTTGATTTCAGCATGTTTAAATGCTGA,1.28
20,TTGCACTGCAAAGAAGTCAAACTTTGGACC,6.36
21,TTCTGCTGCATTCTATTGGTCAAAGTAAAT,0.511
